B1: tRNA (parent)
chain: CUCUCGGUAGCCAAGUUGGUUUAAGGCGCAAGACUUUAAUUUAUCACUACGAAAUCUUGAGAUCGGGCGUUCGACUCGCCCCCGGGAGAUUUUUUCCUCGAGCAA

This sample is rich in variants without activity.

In this series the parent is B1. Nature of the series: nonsense suppression (GFP-seq) (ratio to wild type); higher = more function; SUP4oc tRNA, yeast GFP reporter sort-seq. Summed up:
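Sorted GFP/RFP bins of yeast were each Illumina-sequenced with a phred ≥30 cutoff; the cells held a genome-integrated ochre-suppressor tRNA variant from a library with ~3% random mutations, a galactose-driven GFP ochre reporter, and RFP. Culture was in raffinose/galactose medium containing 80 mg/L adenine. Nonsense suppression, termed GFPSEQ, is the median GFP/RFP of the bins weighted by each variant's estimated cell share per bin, relative to the unmutated parent tRNA, for variants reaching ≥100 reads and ≥30 cells.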
For GUCUCGGUAGCCAAAUUGGUUUAAGGCGCAAGCCUUUAAUUUAUCACUACGAAAUCUAGAGAUCGGGCGUUCGACUCGCCCCCGGGAGAUUUUUUCCUCGAGCAA, the nonsense suppression is at most 0.026.

In the case of CUCUCGGUAGCCAAGUUGGUUUAAGGCGCAAGACUUUAAUUUAUCACUACGAAAUCUUGAGAUCGGGCGUUCGACUCUCCCCAGGGAGAUUUUUUCCUCGAGCAA, the nonsense suppression came to 0.0425.

On to CUCUCGGUAGCCAAGUUAGUUUACUGCGCAAGACUUUAAUUUAUCACUACGAAAUCUUGAGAUCGGGCGUUCGACUCGCCCCCGGGAGAUUUUUUCCUCGAGCAA, for which the nonsense suppression was at most 0.026.

As to CACUCGGUAGCCAAGUUGGUUUAAGGCGCAAGACUUUAAUUUAUCACUACGAAAUCUUGAGAUCGGGCGUUCGACUCGGCCCCGGGAGAUUUUUUCCUCGAGCAA, the nonsense suppression was at most 0.026.

Consider CUCUCGGUAGCCAAGUUGGUCUACGGCUCAAGACUUUAAUUUAUCACUACGAAAUCUUGAGAUCGGGCGUUCGACUCGCCCCCGGGGGAUUUUUUCCUCGAGCAA, for which the nonsense suppression is at most 0.026.

Regarding CUCUCGGUAGCCAAGUUGGUUCAAGGCGCAAGACUUUAAUUUAUCACUACGAAAUCUUGAGAUCGGGCGUUAGACUCGCCCCCGGGAGAUUUUUUCCUCGAGCAA, the nonsense suppression is at most 0.026.

For CUCUCGGUAGCCAAGUUGGUUUAAGGCGCAAGACAUUAAUUUAUCACUACGAAAUCUUGAGAUCGGGCGUUGGACUCGCCCCCGGGAGAUUUUUUCCUCGAGCAA, the nonsense suppression was at most 0.026.

For CUCUCGGUAGCCAAGUUGGUUUGAGGGGCAAGACUUUAAUUUAUCACUACGAAAUCUUGAGAUCGGGCGUUCGACUCGCCCCCGGGAGAUUUUUUCCUCGAGCAA, the nonsense suppression was at most 0.026.

With CUCACGGUAGCCAAGUUGGUUUAAGGCGCAAGACUUUAAUUUAUCACUACGAAAGCUUCAGAUCGGGCGUUCGACUCGCCCCCGGGAGAUUUUUUCCUCGAGCAA, the nonsense suppression is at most 0.026.

As to CUCCCGGUAGCCAAGUUGGUUUAAGGGGCAAGACUUUAAUUUAUCACUACGAAAUCUUGAGAUCGGGCGUUCGACUCGCCCCCGGGAGAUUUUUUCCUCGAGCAA, the nonsense suppression is at most 0.026.

With CUCUCCGUAGCCAAGUUGGUUUAAGGCGAAAGACUUUAAUUUAUCACUACGAAAUCUUCAGAUCGGGCUUUCGACUCGCCCCCGGGAGAUUUUUUCCUCGAGCAA, the nonsense suppression is at most 0.026.

Turning to GUCUCGGUAGCCAAGUUGGUUUAAGGCGCAAGACUUUAAUUUAUCACUACGAAAUCUUGAGAUCGGGCGUUCAACUCGCCCCAGGGAGAUUUUUUCCUCGAGCAA, the nonsense suppression is at most 0.026.

As for CUCUCGGUAGCCAAGUAGGUUUAAGGCGCAAGACUUUAAUUUAUCACUACGAACUCUGGAGAUCGGGCGUUCGACUCGCCCCCGGGAGAUUUUUUCCUCGAGCAA, the nonsense suppression was at most 0.026.

In the case of CUCUCGGUAGCCAAUUUGGUUUAAGGCGCAAGACUUUAAUUUAUCACUACGAAAUCUUGAGAUCGGGCCUUCGAGUCGCCCCCGGGAGAUUUUUUCCUCGAGCAA, the nonsense suppression was at most 0.026.

Consider CUCUCGGUAGGCAAGUUGGUUUCGCGCGCAAGAUGUUAAUUUAUCACUACGAAAUCUUGAGAUCGGGCGUUCGACUCGCCCCCGGGAGAUUUUUUCCUCGAGCAA, for which the nonsense suppression is at most 0.026.

On to CUCUCGGUAGCCAAGUGGGUUUAAGGCGCAAGACUUUAAUUUAUCACUACGAAAUCUUGCGAUCGGGCGUUCGACUCGCCCCCGGGAAAUUUUUUCCUCGAGCAA, for which the nonsense suppression was at most 0.026.

Consider CUCUCGGUAGCCAAGUUGGUUUAAGGCGCAAGACUUUAAUUUAUCACUACGAAAUCUUGAGAUCGGGCGUUCGACACGCCCCCGGGAGGUUUUUUCCUCGAGCAA, for which the nonsense suppression is at most 0.026.

With CUCUCGGUAUCCAAGUUGCUUUAAGGCGCAAGACUUUAAUUUAUCACUACGAAAUCUUGAGAUCGGGCGUUCGACUCGCCCCCGGGAGAUUUUUUCCUCGAGCAA, the nonsense suppression is at most 0.026.

As for CUCUCGGUAGCCAAGUUGGUUUAAGGCGCAAAACAUUAAUUUAUCACUACGAAAUCUUUAGAUCGGGCGUUCAACUCGCCCCCGCGAGAUUUUUUCCUCGAGCAA, the nonsense suppression is at most 0.026.

For the variant UUCUCGGUAGCCAAGUUGGUUUAAGGCGCAUGACUUUAAUUUAUCACUACGAAAUCUUGAGAUCGGGCGUUCGACUCGCCCCCGGGAGAUUUUUUCCUCGAGCAA, the nonsense suppression was at most 0.026.

Regarding CACUCGGUAGCCAAGUUGGUUUAAGGCGCAAGACUUUAAUUUAUCACUACGAAAUCUUGAGAUCUGGCGUUCGACUCGCCCCCGGGAGAUUUUUUCCUCGAGCAA, the nonsense suppression is at most 0.026.

In the case of CUCUCGGUAGCCAAGUUGGCUUAAGGCGCAAGACUUUAAUUUAUCACUACGAAAUCUUGAGAUCGCGCGUUCGACUCUCCCCCGGGAGAUUUUUUCCUCGAGCAA, the nonsense suppression was at most 0.026.

On to CUCUCGGUAGCCAAGUUGGUUUAAGGCGCAAGGCUUUAAUUUAUCACUACGAAAUCUUGAGAUCGGCCGUUCGACUUGCCCCCGGGAGAUUUUUUCCUCGAGCAA, for which the nonsense suppression was at most 0.026.

Turning to CUCUCAGUAGCCACGUUGGUUUAAGUCGCAAGACUUUAAUUUAUCACUACGAAAUCUUGAGAUCGGGCGUUCGACUCGCCCCCGGGAGAUUUUUUCCUCGAGCAA, the nonsense suppression was at most 0.026.

On to CUCUCGGUAGCCAAGUUGGUUUAAGGCGCAAGAUUUUAAUUUAUCACUACGAAAUCUUGAGAUCGGGCGUUCGACUCGCCCCCGGGGGAUUUUUUCCUCGAGCAA, for which the nonsense suppression was at most 0.026.

With CUCUCGGUAGCCAAGUUGGUUUCAGGCGCACGACUUUAAUUUAUCACUACGAAACCUUGAGAUCGGGCGUUCGACUCGCCCCCGGGAGAUUUUUUCCUCGAGCAA, the nonsense suppression is at most 0.026.

For the variant CUCUCGGCAGCCAAGUUGGUUUAAGGCGCUAGACUUUAAUUUAUCACUACGAAAUCUUGAGAUCGGGCGUUCGACUCGCCCCCAGGAGAUUUUUUCCUCGAGCAA, the nonsense suppression is at most 0.026.

For the origin of these results see the RNAGym collection of RNA variant scans (doi:10.1101/gad.245936.114).
